The record followed here is publication PMC4571095.

Protein sequences, listed by entry. Tags and fused reporters are not part of them.
UniProt P60880: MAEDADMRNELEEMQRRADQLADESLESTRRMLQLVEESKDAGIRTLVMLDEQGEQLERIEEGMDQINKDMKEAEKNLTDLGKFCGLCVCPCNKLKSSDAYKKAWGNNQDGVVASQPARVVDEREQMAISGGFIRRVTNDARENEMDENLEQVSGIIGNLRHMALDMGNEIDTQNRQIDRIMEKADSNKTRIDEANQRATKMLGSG
UniProt Q96A65: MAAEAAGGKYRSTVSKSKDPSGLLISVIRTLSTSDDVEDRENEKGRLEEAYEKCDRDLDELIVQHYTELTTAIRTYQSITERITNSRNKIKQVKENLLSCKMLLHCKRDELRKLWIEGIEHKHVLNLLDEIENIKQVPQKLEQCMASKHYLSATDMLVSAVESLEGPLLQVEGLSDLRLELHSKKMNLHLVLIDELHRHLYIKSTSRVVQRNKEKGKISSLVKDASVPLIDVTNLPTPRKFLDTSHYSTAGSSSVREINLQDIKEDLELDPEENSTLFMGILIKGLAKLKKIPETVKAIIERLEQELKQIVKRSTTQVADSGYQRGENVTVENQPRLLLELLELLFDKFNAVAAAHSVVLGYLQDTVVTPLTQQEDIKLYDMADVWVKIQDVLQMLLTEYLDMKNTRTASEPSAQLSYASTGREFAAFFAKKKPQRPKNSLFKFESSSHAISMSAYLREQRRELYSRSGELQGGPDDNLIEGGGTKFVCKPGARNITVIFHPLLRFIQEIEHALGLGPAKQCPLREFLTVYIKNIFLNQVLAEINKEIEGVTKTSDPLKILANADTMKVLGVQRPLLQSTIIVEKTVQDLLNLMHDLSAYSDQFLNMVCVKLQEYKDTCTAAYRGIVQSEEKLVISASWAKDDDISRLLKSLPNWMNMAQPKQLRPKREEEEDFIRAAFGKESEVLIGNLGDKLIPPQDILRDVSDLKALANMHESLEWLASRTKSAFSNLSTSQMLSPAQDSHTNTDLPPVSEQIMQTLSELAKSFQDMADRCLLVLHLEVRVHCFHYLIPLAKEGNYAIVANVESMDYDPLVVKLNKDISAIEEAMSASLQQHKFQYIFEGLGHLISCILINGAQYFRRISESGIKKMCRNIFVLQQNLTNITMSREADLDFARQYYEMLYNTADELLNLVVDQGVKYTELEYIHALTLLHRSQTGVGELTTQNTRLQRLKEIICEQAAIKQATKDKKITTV
UniProt Q9NV70: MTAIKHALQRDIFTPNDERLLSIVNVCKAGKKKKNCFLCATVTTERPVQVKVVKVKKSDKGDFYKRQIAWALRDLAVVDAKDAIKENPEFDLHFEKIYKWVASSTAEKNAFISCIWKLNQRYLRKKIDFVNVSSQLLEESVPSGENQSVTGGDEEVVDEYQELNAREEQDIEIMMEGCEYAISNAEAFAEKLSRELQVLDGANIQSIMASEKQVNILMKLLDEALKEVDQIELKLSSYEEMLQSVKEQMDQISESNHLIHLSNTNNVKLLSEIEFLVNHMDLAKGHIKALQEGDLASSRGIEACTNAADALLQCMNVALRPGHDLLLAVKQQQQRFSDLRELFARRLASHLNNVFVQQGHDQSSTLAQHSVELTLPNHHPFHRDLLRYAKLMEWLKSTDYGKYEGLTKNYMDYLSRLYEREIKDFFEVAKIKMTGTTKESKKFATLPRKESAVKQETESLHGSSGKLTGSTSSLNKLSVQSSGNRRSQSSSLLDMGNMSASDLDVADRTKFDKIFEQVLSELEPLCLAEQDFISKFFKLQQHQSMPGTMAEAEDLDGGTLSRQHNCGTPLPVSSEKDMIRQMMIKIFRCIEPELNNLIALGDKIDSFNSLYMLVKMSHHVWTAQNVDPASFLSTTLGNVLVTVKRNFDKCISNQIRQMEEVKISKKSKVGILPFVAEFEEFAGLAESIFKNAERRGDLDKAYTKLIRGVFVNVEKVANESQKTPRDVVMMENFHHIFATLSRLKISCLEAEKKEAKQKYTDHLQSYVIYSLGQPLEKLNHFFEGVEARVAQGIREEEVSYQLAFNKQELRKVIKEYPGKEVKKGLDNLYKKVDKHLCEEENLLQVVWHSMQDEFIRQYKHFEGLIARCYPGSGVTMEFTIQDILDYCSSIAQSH
UniProt Q96KP1: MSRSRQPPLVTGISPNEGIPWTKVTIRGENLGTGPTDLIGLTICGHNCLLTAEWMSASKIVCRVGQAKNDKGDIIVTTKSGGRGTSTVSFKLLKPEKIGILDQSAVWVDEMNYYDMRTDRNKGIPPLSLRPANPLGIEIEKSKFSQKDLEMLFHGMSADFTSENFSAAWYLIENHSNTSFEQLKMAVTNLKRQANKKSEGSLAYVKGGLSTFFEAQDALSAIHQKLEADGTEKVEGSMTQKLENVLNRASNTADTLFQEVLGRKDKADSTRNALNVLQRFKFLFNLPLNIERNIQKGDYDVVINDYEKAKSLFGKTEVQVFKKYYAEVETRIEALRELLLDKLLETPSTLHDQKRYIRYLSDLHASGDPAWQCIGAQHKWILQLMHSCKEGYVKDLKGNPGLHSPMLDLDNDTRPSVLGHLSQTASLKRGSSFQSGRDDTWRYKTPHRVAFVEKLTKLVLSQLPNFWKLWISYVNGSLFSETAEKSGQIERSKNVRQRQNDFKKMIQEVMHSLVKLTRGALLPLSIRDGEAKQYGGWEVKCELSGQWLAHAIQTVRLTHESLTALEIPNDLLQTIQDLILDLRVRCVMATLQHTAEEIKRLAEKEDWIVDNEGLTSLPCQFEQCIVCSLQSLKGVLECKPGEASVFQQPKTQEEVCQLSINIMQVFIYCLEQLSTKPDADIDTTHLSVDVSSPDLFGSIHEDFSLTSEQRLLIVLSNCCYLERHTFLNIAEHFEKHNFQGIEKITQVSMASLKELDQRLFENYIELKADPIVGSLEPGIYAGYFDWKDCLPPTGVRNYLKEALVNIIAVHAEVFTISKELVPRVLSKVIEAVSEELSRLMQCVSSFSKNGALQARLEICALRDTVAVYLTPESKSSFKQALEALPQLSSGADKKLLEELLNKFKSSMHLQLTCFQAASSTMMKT
UniProt O00471: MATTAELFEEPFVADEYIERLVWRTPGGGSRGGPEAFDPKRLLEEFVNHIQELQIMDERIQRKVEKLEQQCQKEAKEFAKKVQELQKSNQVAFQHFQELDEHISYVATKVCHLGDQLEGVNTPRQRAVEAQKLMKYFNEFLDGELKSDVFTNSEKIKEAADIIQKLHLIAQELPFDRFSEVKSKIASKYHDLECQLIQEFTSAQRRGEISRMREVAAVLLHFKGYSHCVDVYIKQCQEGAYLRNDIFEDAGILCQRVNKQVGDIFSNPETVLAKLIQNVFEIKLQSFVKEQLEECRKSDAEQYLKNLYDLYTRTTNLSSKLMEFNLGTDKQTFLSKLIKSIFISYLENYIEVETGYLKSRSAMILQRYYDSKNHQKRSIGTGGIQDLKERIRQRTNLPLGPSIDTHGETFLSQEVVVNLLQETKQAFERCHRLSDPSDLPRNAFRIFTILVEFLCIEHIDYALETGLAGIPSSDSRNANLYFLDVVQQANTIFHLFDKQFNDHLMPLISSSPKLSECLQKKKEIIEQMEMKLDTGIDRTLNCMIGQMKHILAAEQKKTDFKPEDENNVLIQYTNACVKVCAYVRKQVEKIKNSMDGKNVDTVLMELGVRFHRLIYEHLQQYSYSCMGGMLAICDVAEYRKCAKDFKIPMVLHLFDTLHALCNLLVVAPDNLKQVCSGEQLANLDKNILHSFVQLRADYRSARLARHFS
UniProt O60645: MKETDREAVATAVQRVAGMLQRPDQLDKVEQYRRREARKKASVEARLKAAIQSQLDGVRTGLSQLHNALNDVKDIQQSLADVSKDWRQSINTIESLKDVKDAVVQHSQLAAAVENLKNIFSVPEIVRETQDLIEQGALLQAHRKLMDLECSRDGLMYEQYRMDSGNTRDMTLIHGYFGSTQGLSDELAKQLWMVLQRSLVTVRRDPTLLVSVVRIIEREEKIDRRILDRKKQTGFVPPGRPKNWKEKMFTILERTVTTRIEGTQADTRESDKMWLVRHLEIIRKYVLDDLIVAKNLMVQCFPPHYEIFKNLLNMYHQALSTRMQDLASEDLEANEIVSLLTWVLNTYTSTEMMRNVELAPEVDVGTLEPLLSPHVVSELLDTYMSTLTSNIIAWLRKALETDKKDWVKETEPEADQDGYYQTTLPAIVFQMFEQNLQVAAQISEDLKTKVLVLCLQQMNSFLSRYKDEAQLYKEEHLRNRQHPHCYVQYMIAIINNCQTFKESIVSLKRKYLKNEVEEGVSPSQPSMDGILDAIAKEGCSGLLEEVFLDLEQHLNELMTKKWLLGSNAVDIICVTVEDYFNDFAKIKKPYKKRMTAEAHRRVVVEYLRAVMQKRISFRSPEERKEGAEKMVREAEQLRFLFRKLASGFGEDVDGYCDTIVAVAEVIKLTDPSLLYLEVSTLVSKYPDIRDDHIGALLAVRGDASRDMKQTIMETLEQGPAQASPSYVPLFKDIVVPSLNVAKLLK

Experiment [1] addresses EGFP-tagged SNAP25 (human) (UniProt P60880). Nature of the experiment: co-IP; HEK293T cells cotransfected with EGFP-SNAP23 or -SNAP25 and a tRFP- or mCherry-tagged exocyst subunit; lysis buffer 50 mM Tris-HCl pH 7.4, 150 mM NaCl, 0.1% NP-40; lysate incubated with GST-anti-GFP Nanobody prebound to glutathione-Sepharose 4B beads, 4°C, 1 h; immunoblot with anti-tRFP, anti-RFP or anti-GFP. On the technique in general: A western blot detects proteins with antibodies after separation by electrophoresis.

For experiment [2] the target is unchanged. The experiment in a line: co-IP; HEK293T cells transfected with EGFP-SNAP23 or -SNAP25 alone; lysate precipitated with GST-anti-GFP Nanobody on glutathione-Sepharose 4B beads; immunoblot for endogenous Sec8 or Exo70.
Experiment [3] concerns the target T1, EGFP-tagged SNAP23 (human) (UniProt O00161).
T1 sequence: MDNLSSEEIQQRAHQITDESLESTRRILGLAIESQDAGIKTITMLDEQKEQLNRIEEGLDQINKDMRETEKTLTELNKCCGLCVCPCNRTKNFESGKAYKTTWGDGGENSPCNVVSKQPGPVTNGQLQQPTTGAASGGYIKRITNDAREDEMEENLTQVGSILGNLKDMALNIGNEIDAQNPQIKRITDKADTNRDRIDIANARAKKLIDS
The experiment in a line: co-IP; HEK293T cells cotransfected with EGFP-SNAP23 or -SNAP25 and a tRFP- or mCherry-tagged exocyst subunit; lysis buffer 50 mM Tris-HCl pH 7.4, 150 mM NaCl, 0.1% NP-40; lysate incubated with GST-anti-GFP Nanobody prebound to glutathione-Sepharose 4B beads, 4°C, 1 h; immunoblot with anti-tRFP, anti-RFP or anti-GFP.

Results are given in words; binding and its absence hold for the method and conditions named. In cells and extracts the contact can be indirect. Some results given as binding are weak or reduced against the parent protein; the word gives no strength. For part of these data: Sequences can lack the tags named with a protein.

Take “Sec8-tRFP (exocyst subunit Sec8, C-terminally tagRFP-tagged) (from UniProt Q96A65 1-974)”: in experiment [1], the binding entry is “binds”. Turning to “endogenous Sec8 (from UniProt Q96A65 1-974)”, in experiment [2], the binding entry is on record as “binds”.

As for “mCherry-tagged Sec3 (from UniProt Q9NV70 1-894)”, the binding result in experiment [3] and in experiment [1] was “no binding” throughout. “mCherry-tagged Sec5 (from UniProt Q96KP1 1-924)”: the binding entry in experiment [3] and in experiment [1] was “no binding” each time. As for “mCherry-tagged Sec10 (from UniProt O00471 1-708)”, the binding entry in experiment [3] and in experiment [1] was “no binding” in each case. Regarding “tRFP-Sec6 (exocyst subunit Sec6, N-terminally tagRFP-tagged) (from UniProt O60645 1-745)”, in experiment [3], the binding entry is “binds”.
